Measurements taken from paper PMC12136788.
The other results are listed elsewhere or left out.

B1: chr7:54825262:54825263:-_ENSG00000132432_ENST00000352861|hu_hu|hu_hu_hu_mus_False|8_28 (ssRNA)
RNA: GGGAGUUCUACAGUCCGACGAUCCUGCCGGCUGGGCUCCACAAACUGCAUUACCUGAUCCAUGUUUGUUGGAUGGCGGAUUGAGAGCGUAGAGACACGUAGCUCAGGGAGCUUGCUAGCCCAACGGCACCGGAACCUGGCAACCAACAGAGGAUUGAGCAUCA
B2: chr1:117910967:117910968:+_ENSG00000198162_ENST00000356554|hu_hu|motif|central (ssRNA)
RNA: GGGAGUUCUACAGUCCGACGAUCUUUUGAAGAGUCUGGAAGGAAAAAGAAUGCCCCAAAACACAGAGUGAUGAAGGCACGGAGAAUAAGGAGAAGAAUAAACUUCUCAGAAAGUCUCAAGGUAGCCCUGUGAUGUGGGAAGGACAACAGAGGAUUGAGCAUCA
B3: 87969386_87969506_6142_CDS_ENSG00000188994_ENST00000369577|human|control|control (ssRNA)
RNA: GGGAGUUCUACAGUCCGACGAUCUGUUUUGUCAGGACUUUUUUUUUCUACAAGUUGUUUUUCUGGGAUCACUGCUACAUUACUGUGGGUAUUUUGGGUCUCUGCUCUCAAUUCUAAAGCAGGCUGAGAUUCCUUUUUAUUUUCCAACAGAGGAUUGAGCAUCA
B4: chr18:52894491:52894492:-_ENSG00000196628_ENST00000354452|hu_hu|motif|central (ssRNA)
RNA: GGGAGUUCUACAGUCCGACGAUCAAAAAAAAAAAAUCCAUAUUUACAGUAAAAUCUUUCUUUUAAAAAAGUUAAUCAGUACGGUUUUUUUACAGGAGAAAAAAGUCUGAAACAAAUGAACAAAAGCUUACCAUAGUCACUAAACAACAGAGGAUUGAGCAUCA
B5: 32174041_32184526_3110_CDS_ENSMUSG00000029765_ENSMUST00000115096|mouse|control|control (ssRNA)
RNA: GGGAGUUCUACAGUCCGACGAUCUCCCGACUGAGGCUGUGGGAGGUUCUUAGCCUUCAGAGUGAUGGGCUUGAUCACCUCUACUGGAACGAGGAUCUUGUCCACUCGCAGCAGCUGGGGGCAGUCCUCAGGUAGCUUCACUCGCAACAGAGGAUUGAGCAUCA
B6: chr8:35203877:35203878:-_ENSMUSG00000031513_ENSMUST00000033910|mus_mus|FALSE|FALSE (ssRNA)
RNA: GGGAGUUCUACAGUCCGACGAUCGGAAGGGCACAUCCAAGCAUCAGGAACAUCAGCCCGAUCGCUCCUCCAAAGGACAAACUAAUUAAAGCUUUGAUGCCCGCCAUGGCGGUGACGUCGCUCCUGGCUCCACGACCCGGGCGGCAACAGAGGAUUGAGCAUCA
B7: chr1:46159212:46159213:+_ENSG00000159596_ENST00000372025|hu_mus|hu_hu_hu_mus_True|68_108 (ssRNA)
RNA: GGGAGUUCUACAGUCCGACGAUCUCUGAUCCCACCCAAGAAAGCUAGGAAACCGGCUCCAUAAGCCAUCUGAGUAAAAGCUAGGACGGGGAUAUAAGACUUUGUUAUUACCAUGAGAAGUGGGGGAGCAGUAAAGGGGAUUAACAACAGAGGAUUGAGCAUCA
B8: chr10:122565287:122565288:-_ENSMUSG00000020124_ENSMUST00000020334|mus_hu|motif|central (ssRNA)
RNA: GGGAGUUCUACAGUCCGACGAUCAAUUUUGGGGACAACCACUUUGUACUGCAUAGGUUUGGUAAGUGGAUCCAUUCGGACGGAGUAAACUUCCAAGGUGCGUUCUUUUUUCAUGGGCAAUGGAAGUGUCAAGUAACAAAAAGGCAACAGAGGAUUGAGCAUCA
B9: chr16:20684184:20684185:+_ENSMUSG00000045983_ENSMUST00000044783|mus_mus|FALSE|FALSE (ssRNA)
RNA: GGGAGUUCUACAGUCCGACGAUCUGGAGGGCCACCCCGACGUUUGUCGCUGCCCUUGGCCAUGAGCUGCUGUACUUUAAUAUGUUCUCGGUGCUCUUCCAUCUCAGCCUCCUUGUGAAUUUGAUCAAUAGUCUUAGGACCCUGCAACAGAGGAUUGAGCAUCA
B10: chr1:10192443:10192444:+_ENSG00000130939_ENST00000377157|hu_mus|motif|central (ssRNA)
RNA: GGGAGUUCUACAGUCCGACGAUCAAGGGCCGCCAUGUAGCUGAGAGCCGCUUCACGAGUUUCGCCAUUUAACAAAAUACGGUGUAGAAUCUUGAAAAGUUCUUGCCGUCCCAGCUCCAGGUAAUGCUGUAGUGACUGGCUGACCAACAGAGGAUUGAGCAUCA
B11: chr1:114133195:114133196:+_ENSG00000081026_ENST00000369615|hu_mus|FALSE|FALSE (ssRNA)
RNA: GGGAGUUCUACAGUCCGACGAUCCAUUUCCCAGUUUUUGGGCAGCGGUUCCAGAUUCUCAUCUCUCAUCAUAUAAUUUCUAAAGUCCAUGGAGCUAUUUGUUUGGUUAUAACUUGGAACAGUCUUCAUCCAGCAGUCAGAUGUCAACAGAGGAUUGAGCAUCA
B12: chr2:152658766:152658767:-_ENSG00000162980_ENST00000295087|hu_mus|motif|central (ssRNA)
RNA: GGGAGUUCUACAGUCCGACGAUCAUUCUUAAAUUCAUUUUAACUGUUUGUCAUGUAAUUUAAUACCUAAAAAGGUUGCAGCGGAAUUAAUUACUACUAUUUAUAGGAUGUUACCUCUUUGGGUAGAUAUAUUUCACACCAUGACAACAGAGGAUUGAGCAUCA
B13: chr5:31258465:31258466:-_ENSMUSG00000045302_ENSMUST00000155946|mus_mus|FALSE|FALSE (ssRNA)
RNA: GGGAGUUCUACAGUCCGACGAUCCCAUGGGCCUCCUUCACAUAAUACAGGCGCUGGGGGAGAAAGCAGUGAGGAAAGCCUAGUUGGAAGCUACCUUCGGGGAAACACGCUCCACAGUCCUAACAGGCUUCCCCUGUGGACUGGCAACAGAGGAUUGAGCAUCA
B14: 90035977_90036097_484_CDS_ENSG00000070961_ENST00000261173|human|control|control (ssRNA)
RNA: GGGAGUUCUACAGUCCGACGAUCUGAUACUAUGGCUGCAAUUUCUAAUAUAAUUAAAGUGACAUCUUGUAAUGCUUCCCAUACUAAUUGAAGAAAGGUUUUUGGCUUUUUAGGAGGUAUAAAAUUCUUUCCAAACACUGCUUCCAACAGAGGAUUGAGCAUCA

Each binder was assayed against T1, UNK ZnF1-3 (human, UniProt Q9C0B0 31-174) (assay: nsRBNS (natural sequence RNA bind-n-seq); RBNS binding buffer (assumed for nsRBNS): 25 mM Tris pH 7.5, 150 mM KCl, 3 mM MgCl2, 0.01% Triton X-100, 500 ug/ml BSA, 20 U/ml SUPERase-In, 4 C; UNK is unkempt and MSI1 is Musashi-1; names of the RNAs are library labels; protein concentration not given here; high values mean tight binding).
T1 sequence: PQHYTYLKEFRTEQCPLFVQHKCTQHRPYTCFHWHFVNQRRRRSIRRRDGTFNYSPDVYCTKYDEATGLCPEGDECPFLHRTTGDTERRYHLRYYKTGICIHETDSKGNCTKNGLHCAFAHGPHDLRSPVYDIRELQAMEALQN
B1 showed a binding signal of 1.23 enrichment R. Binder B2 has a binding signal of 2.8 enrichment R. B3 showed a binding signal of 0.454 enrichment R. Work on B4 yielded a binding signal of 1.13 enrichment R. In the case of B5, the binding signal is reported as 0.971 enrichment R. Binder B6 has a binding signal of 1.71 enrichment R. B7 showed a binding signal of 1.53 enrichment R. For B8, the binding signal was 1.22 enrichment R. B9 showed a binding signal of 0.843 enrichment R. Work on B10 yielded a binding signal of 1.54 enrichment R. For B11, the binding signal was 0.913 enrichment R. B12 gave a binding signal of 0.744 enrichment R. In the case of B13, the binding signal is reported as 1.19 enrichment R. In the case of B14, the binding signal is reported as 1.38 enrichment R.
